Experimental data reported in the supplement of paper PMC9334596.
Several values for one entry are separate records, joined by “and”; a condition that tells them apart may be missing. Identical values can stand only once. The full ranking holds about 5,300 compounds; the median of “PER2::LUC luminescence relative to vehicle control” is about 0.96, and the highest 2% start at about 1.3. This is one part of the list.

Tested on: mPer2Luc MEF
Assay: PER2::LUC luminescence relative to vehicle control (fold of vehicle); higher = higher PER2::LUC reporter signal
Details: 10 µM
Outline: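 The reported values are PER2::LUC luminescence as fold of vehicle control in mouse embryonic fibroblasts carrying the mPer2Luc reporter. Cells were seeded at ~3000 per well in 384-well plates in DMEM with 10% FBS at 37 °C and 5% CO2, and compounds were added at 10 μM 48 h later. ONE-Glo luminescence was read 24 h and 30 h after treatment.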

Compound | PER2::LUC luminescence (time after treatment 24 h) | PER2::LUC luminescence (time after treatment 30 h)
NC(=O)C1=CN(C2OC(COP(=O)(O)OP(=O)(O)OC[C@H]3O[C@@H](n4cnc5c(N)ncnc54)C(OP(=O)(O)O)[C@H]3O)C(O)C2O)C=CC1 (stereo partly drawn) | 0.834 | 0.999
Nc1nc(NC2CC2)cc(-c2cccc(Cl)c2Cl)n1 | 0.935 | 1.02
CC(O)C(O)[C@H]1CNc2nc(N)[nH]c(=O)c2N1 (stereo partly drawn) | 1.17 | 1.11
CNS(=O)(=O)CCc1ccc2[nH]cc(C3CCN(C)CC3)c2c1 | 0.95 and 1.11 | 1 and 1.24
CC1=C(/C=C/C(C)=C/C=C/C(C)=C/C=C/C=C(C)/C=C/C=C(C)/C=C/C2=C(C)C(=O)[C@@H](O)CC2(C)C)C(C)(C)C[C@H](O)C1=O | 1.21 | 1.07
CC(=O)Oc1ccccc1C(=O)O | 1.06 and 1.18 | 1.01 and 0.996
O=C(O)[C@H]1NCCC[C@H]1C(=O)O (racemic) | 1.1 | 1.08
O=c1cc(-c2ccccc2)oc2cc(O)ccc12 | 1.48 | 1.84
CSCC1CN(/N=C/c2ccc([N+](=O)[O-])o2)C(=O)O1 (stereo not drawn) | 1.06 | 0.942
N=C(N)NS(=O)(=O)c1ccc(N)cc1 | 0.999 | 1.04
CN(C)c1cc(CNCC(C)(C)C)c(O)c2c1C[C@H]1C[C@H]3[C@H](N(C)C)C(O)=C(C(N)=O)C(=O)[C@@]3(O)C(O)=C1C2=O | 1.27 | 1.01
COc1ccc2ccc(=O)oc2c1CC=C(C)C | 0.857 | 0.886
O=C(Nc1nc2cccc(-c3ccc(CN4CCS(=O)(=O)CC4)cc3)n2n1)C1CC1 | 0.727 and 0.501 | 0.928 and 0.862
COc1cc2c3cc1Oc1cc(ccc1O)C[C@@H]1c4c(cc(OC)c(O)c4Oc4ccc(cc4)C[C@@H]3N(C)CC2)CC[N+]1(C)C | 1.05 and 0.925 | 1.02 and 0.942
CC1(C)[C@H](C(=O)O)N2C(=O)C[C@H]2S1(=O)=O | 1.03 | 0.651
OC(c1ccccc1)(c1ccccc1)C12CC[N+](CCOCc3ccccc3)(CC1)CC2 | 1.03 | 0.981
CN1CCc2cc(Cl)c(O)cc2[C@@H](c2ccccc2)C1 | 1.07 and 0.999 | 0.948 and 0.93
Nc1ccc(N2C(=O)c3ccccc3C2=O)c(Cl)c1 | 1.1 | 0.958
Cc1ncc(CO)c(CO)c1O | 0.974 | 0.821
O=C(O)c1ccc(-c2c[nH]c3ncc(-c4ccccc4)cc23)cc1C1CCCC1 | 0.972 | 1.01
CCc1c(C)[nH]c2c1C(=O)C(CN1CCOCC1)CC2 (stereo not drawn) | 1.03 | 1.05
Cc1ccc(NCCCc2ccccc2)c(N)c1 | 0.926 | 1.07

Compound | PER2::LUC luminescence (time after treatment 24 h) | PER2::LUC luminescence (time after treatment 30 h)
NC(=O)CNCCC(c1ccccc1)c1ccccc1 | 1.12 | 1.07
C=CC(=O)Nc1cc(Nc2nccc(-c3cn(C)c4ccccc34)n2)c(OC)cc1N(C)CCN(C)C | 0.054 | 0.012
C#Cc1cccc(Nc2ncnc3cc4c(cc23)OCCOCCOCCO4)c1 | 0.923 | 0.882
O=[N+]([O-])c1cncn1CCN1CCOCC1 | 1.08 | 1.05
CCOC(=O)c1cc(OC)c(OC)cc1NC(=O)c1cc(OC)c(OC)c(OC)c1 | 1.08 | 1.16
CC1=C(C(=O)O)N2C(=O)[C@@H](NC(=O)[C@H](N)C3=CCC=CC3)[C@H]2SC1 | 1.09 | 0.999
N#Cc1cccc2sc(C(=O)N=C(N)N)cc12 | 1.02 | 1.08
N[C@@H](CCC(=O)N[C@@H](CS)C(=O)NCC(=O)O)C(=O)O | 1 | 1.05
COc1ccc2c(c1)C[C@H](C(=O)Nc1ccc(-c3cn[nH]c3)cc1OCCN(C)C)CO2 | 0.472 | 0.452
COc1cc(C(=O)NCCCCCC(=O)O)cc(OC)c1OC | 1.03 | 1.03
c1ccc(-c2[nH]ncc2-c2ccnc3ccccc23)nc1 | 0.649 | 0.66
CCCSc1nc(N[C@@H]2C[C@H]2c2ccc(F)c(F)c2)c2nnn([C@@H]3C[C@H](OCCO)[C@@H](O)[C@H]3O)c2n1 | 0.714 | 0.753
C=CC(=O)Nc1cccc(Nc2nc(Nc3ccc(Oc4ccnc(C(=O)NC)c4)cc3)ncc2F)c1 | 0.353 | 0.536
Cc1nnsc1C(=O)Nc1ccc(-n2nc(C(F)(F)F)cc2C(F)(F)F)cc1 | 1.02 | 0.946
Cn1cc(-c2cnn3c(N)c(Br)c([C@@H]4CCCNC4)nc23)cn1 | 0.427 and 0.512 | 0.595 and 0.48
N[C@H](CCC(=O)O)C(=O)O | 1.1 | 1.01
N[C@@H]1CONC1=O | 0.926 and 0.804 | 0.996 and 1.09
O=C(O)COCCN1CCN(C(c2ccccc2)c2ccc(Cl)cc2)CC1 (stereo not drawn) | 1.26 | 1.1
CCCCC(CC)CCC(CC(C)C)OS(=O)(=O)O (stereo not drawn) | 1.04 | 0.97
O=C(O)/C=C/c1ccc(O)c(O)c1/C(=C\c1ccc(O)c(O)c1)C(=O)O | 1.15 | 1.02
COc1ccc2cc([C@H](C)CO)ccc2c1 | 0.806 | 0.824
O=C1c2ccccc2C(=O)C1c1ccc(Cl)cc1 | 0.996 and 1.05 | 1.07 and 1.16
